Here are results for 86 sequences from the supplement of paper PMC3334620.

In all, about 33,000 sequences were measured (“E-score (-0.5 to 0.5)”: median about -0.012, highest 2% from about 0.27 on). Some of the results follow.

This test concerns the target T1, Vhr1 (UniProt P40522).
T1 sequence: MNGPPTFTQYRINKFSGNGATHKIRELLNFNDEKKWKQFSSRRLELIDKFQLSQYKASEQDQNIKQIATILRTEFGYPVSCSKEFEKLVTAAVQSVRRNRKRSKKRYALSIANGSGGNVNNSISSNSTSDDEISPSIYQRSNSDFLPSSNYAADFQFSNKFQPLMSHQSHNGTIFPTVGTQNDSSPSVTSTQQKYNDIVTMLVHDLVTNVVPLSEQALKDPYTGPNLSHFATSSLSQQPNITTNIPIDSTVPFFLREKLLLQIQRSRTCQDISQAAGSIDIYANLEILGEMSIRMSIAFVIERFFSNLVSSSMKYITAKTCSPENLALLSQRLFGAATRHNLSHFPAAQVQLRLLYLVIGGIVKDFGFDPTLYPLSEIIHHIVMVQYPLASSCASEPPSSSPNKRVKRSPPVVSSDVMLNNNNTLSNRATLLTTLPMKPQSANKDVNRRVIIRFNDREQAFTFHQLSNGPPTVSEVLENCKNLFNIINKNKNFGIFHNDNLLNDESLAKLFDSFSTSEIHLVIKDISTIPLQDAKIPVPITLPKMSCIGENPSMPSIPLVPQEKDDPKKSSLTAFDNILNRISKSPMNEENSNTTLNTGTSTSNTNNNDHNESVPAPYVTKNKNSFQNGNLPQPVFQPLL
Nature of the test: PBM E-score (8-mer binding enrichment) (E-score (-0.5 to 0.5)); higher = stronger / more preferred TF binding; most listed sequences are background and not binding sites. As to conditions: protein concentration: 200 nM; construct: GST-full length. A digest of the protocol: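 Universal all-10-mer Agilent arrays, fresh or stripped once, were converted to double-stranded form by primer extension. GST-tagged yeast transcription factors from PURExpress in vitro transcription/translation, full-length or DNA-binding domain only, were applied at about 100-200 nM and detected with fluorescent anti-GST. After masliner normalisation, the Universal PBM Analysis Suite scored each ungapped eight-base word together with its reverse complement by E-score.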
On to CAAGGATA, for which the “PBM E-score” value was 0.117.

For ACACTACC, the “PBM E-score” value was found to be 0.0417.

Regarding TACCTCCA, the “PBM E-score” value is 0.0333.

As for AGTGCTAA, the “PBM E-score” value is 0.0517.

As for GTCAGCCA, the “PBM E-score” value turned out to be 0.183.

Regarding AGGGATTG, the “PBM E-score” value was -0.0704.

Turning to GCGCGGTA, the “PBM E-score” value stood at 0.175.

With TCTGAGCA, the “PBM E-score” value is -0.0423.

Consider ACCCTATC, for which the “PBM E-score” value amounted to 0.135.

In the case of GAGACGTA, the “PBM E-score” value was 0.0377.

For ATTTGGAG, the “PBM E-score” value is -0.19.

Turning to ACATTAAA, the “PBM E-score” value is -0.102.

Turning to CCTGTATA, the “PBM E-score” value was 0.0499.

As to CGTACTCC, the “PBM E-score” value is -0.0124.

For the sequence CCTATTTC, the “PBM E-score” value is -0.104.

With ACCGATCG, the “PBM E-score” value turned out to be 0.0571.

With AGTCATAT, the “PBM E-score” value is 0.421.

Turning to CGACAGGA, the “PBM E-score” value is 0.0413.

For AAGCTTAG, the “PBM E-score” value was -0.0364.

TGATTTAA: the “PBM E-score” value was 0.229.

Consider AAAGTCTC, for which the “PBM E-score” value is -0.405.

As to GCAATTGC, the “PBM E-score” value was -0.0693.

In the case of ACAGCGAG, the “PBM E-score” value was -0.0186.

Regarding CCACGTGA, the “PBM E-score” value is -7e-05.

On to ATATAGGC, for which the “PBM E-score” value was -0.0174.

As to ACCGAAAA, the “PBM E-score” value came to 0.0291.

On to CAACAAGC, for which the “PBM E-score” value amounted to 0.152.

Consider AACCTTAA, for which the “PBM E-score” value is -0.138.

For GGGGCTAA, the “PBM E-score” value was -0.205.

As to GGGTGCTA, the “PBM E-score” value turned out to be 0.0335.

For CCTCTCGA, the “PBM E-score” value was -0.142.

On to ATGCTCTG, for which the “PBM E-score” value was -0.0683.

Regarding AGCATCCG, the “PBM E-score” value is -0.0745.

For CAATGTTC, the “PBM E-score” value is 0.0349.

Take GGATTGTA: the “PBM E-score” value was -0.158.

Regarding ACGGCGCC, the “PBM E-score” value is -0.156.

Take AACGTGGG: the “PBM E-score” value is -0.156.

Consider ATCGCACA, for which the “PBM E-score” value was -0.0093.

Consider GCGCATGA, for which the “PBM E-score” value was 0.0938.

Consider CATGCACA, for which the “PBM E-score” value turned out to be 0.2.

Regarding CAACCCTG, the “PBM E-score” value worked out at 0.15.

Consider ACCTACGT, for which the “PBM E-score” value is -0.0787.

As to GGGACTTA, the “PBM E-score” value is -0.202.

Consider CTACGAAG, for which the “PBM E-score” value was -0.0622.

Turning to CAAACGCA, the “PBM E-score” value was -0.0229.

As to CATTGGAG, the “PBM E-score” value was -0.0586.

As to CGGTGCTA, the “PBM E-score” value was -0.0557.

For CATCTAAC, the “PBM E-score” value was -0.104.

On to CATATTGA, for which the “PBM E-score” value was -0.0191.

Turning to AGCCCGGA, the “PBM E-score” value is -0.0206.

ATACATTC: the “PBM E-score” value was determined as 0.0568.

As to CTAGGCAA, the “PBM E-score” value was -0.303.

Turning to GACTTGCC, the “PBM E-score” value is 0.00249.

For the sequence AATGACAG, the “PBM E-score” value was found to be 0.0197.

Take ACAAGAGA: the “PBM E-score” value came out at 0.00534.

Consider CTCTGTCC, for which the “PBM E-score” value was determined as 0.0395.

As to CATCACGA, the “PBM E-score” value came to 0.0697.

As for AATGACTC, the “PBM E-score” value was found to be 0.463.

For the sequence GTAACTAA, the “PBM E-score” value came out at 0.148.

For CGGGTGCA, the “PBM E-score” value is -0.0321.

Take CAGTGGGC: the “PBM E-score” value was -0.0826.

On to CAATGGCC, for which the “PBM E-score” value is -0.229.

On to GACATCAC, for which the “PBM E-score” value was found to be 0.0237.

On to CCCCTGCA, for which the “PBM E-score” value was -0.11.

Regarding ACACTAAA, the “PBM E-score” value stood at 0.238.

Consider AGCGCGTC, for which the “PBM E-score” value was -0.0214.

With GCAGCACC, the “PBM E-score” value is -0.0745.

As for CGTTAGAA, the “PBM E-score” value is -0.323.

ACTTCCTA: the “PBM E-score” value was 0.0303.

In the case of ACGGACCC, the “PBM E-score” value was -0.0938.

As for AGAGACAC, the “PBM E-score” value was -0.0162.

In the case of ACGTAAAT, the “PBM E-score” value was -0.168.

As to GCGAACCC, the “PBM E-score” value was 0.124.

Regarding AGAAAACT, the “PBM E-score” value was -0.114.

On to CCATGTCC, for which the “PBM E-score” value was -0.0534.

CTGGGTCC: the “PBM E-score” value was -0.143.

Take AATGTCGT: the “PBM E-score” value was -0.0667.

Regarding GGCCGCAA, the “PBM E-score” value was -0.0783.

For CGAACGTA, the “PBM E-score” value was -0.0982.

On to GTAGCTAC, for which the “PBM E-score” value came to 0.0711.

With CCGCCTAG, the “PBM E-score” value was 0.059.

Regarding AATGGTCC, the “PBM E-score” value amounted to 0.0646.

For the sequence AGCAGTAG, the “PBM E-score” value was -0.18.

With AAGCGCAA, the “PBM E-score” value was -0.133.

With AGACCAGA, the “PBM E-score” value is 0.035.

On to GATCCGCC, for which the “PBM E-score” value amounted to 0.102.
